To fix the notation:
B1: GPR68, Q15743 (parent)
chain: MGNITADNSSMSCTIDHTIHQTLAPVVYVTVLVVGFPANCLSLYFGYLQIKARNELGVYLCNLTVADLFYICSLPFWLQYVLQHDNWSHGDLSCQVCGILLYENIYISVGFLCCISVDRYLAVAHPFRFHQFRTLKAAVGVSVVIWAKELLTSIYFLMHEEVIEDENQHRVCFEHYPIQAWQRAINYYRFLVGFLFPICLLLASYQGILRAVRRSHGTQKSRKDQIQRLVLSTVVIFLACFLPYHVLLLVRSVWEASCDFAKGVFNAYHFSLLLTSFNCVADPVLYCFVSETTHRDLARLRGACLAFLTCSRTGRAREAYPLGAPEASGKSGAQGEEPELLTKLHPAFQTPNSPGSGGFPTGRLA

Scores with a large standard error are left out. The source holds two more conditions with little spread; they are left out. In variant names, del marks residues removed and ins residues inserted between the two positions. For part of these data: The data file names ogerin without a concentration.

In data set [1] the parent is B1. Briefly: cAMP reporter score (Enrich2 score, wild type = 0); higher = more signal; HEK293T, FACS bins.
Variants of B1 are the subject of data set [2]. Kind of data set: surface expression score (Enrich2 score, wild type = 0); higher = more signal; HEK293T, FACS bins.

As for A267D, the cAMP reporter score is -1.51 in data set [1] (pH 5.5); -0.853 in data set [1] (pH 6); -1.48 in data set [1] (pH 6, modulator: ogerin); -1.64 in data set [1] (pH 6.5, modulator: ogerin). Also, in data set [2], the surface expression score was -2.29.

Turning to A267E, the cAMP reporter score in data set [1] (pH 5.5) is -0.013; in data set [1] (pH 6), -1.25; in data set [1] (pH 6, modulator: ogerin) it was -0.793; in data set [1] (pH 6.5, modulator: ogerin), -1.9. Further, the surface expression score in data set [2] is -2.25.

A267H: the cAMP reporter score in data set [1] (pH 5.5) was -0.029; in data set [1] (pH 6), -0.33; in data set [1] (pH 6, modulator: ogerin), -1.08; in data set [1] (pH 6.5, modulator: ogerin), -0.987. Moreover, the surface expression score in data set [2] is -1.58.

As to A267V, the cAMP reporter score amounted to 0.814 in data set [1] (pH 5.5); 1.31 in data set [1] (pH 6, modulator: ogerin); 1.57 in data set [1] (pH 6.5, modulator: ogerin). In data set [2], the surface expression score stood at 0.303.

With A267P, the cAMP reporter score in data set [1] (pH 5.5) was -0.155; in data set [1] (pH 6), -1.11; in data set [1] (pH 6, modulator: ogerin), 0.783; in data set [1] (pH 6.5, modulator: ogerin), 0.664. In addition, the surface expression score in data set [2] was -0.655.

Turning to A267C, the cAMP reporter score in data set [1] (pH 5.5) is -0.914; in data set [1] (pH 6) it was -1.21; in data set [1] (pH 6, modulator: ogerin) it was -0.849; in data set [1] (pH 6.5, modulator: ogerin), -0.434. Moreover, the surface expression score in data set [2] is -1.85.

With A267T, the cAMP reporter score in data set [1] (pH 5.5) was -0.669; in data set [1] (pH 6), -0.358; in data set [1] (pH 6, modulator: ogerin) it was -0.701; in data set [1] (pH 6.5, modulator: ogerin), -0.604. Also, in data set [2], the surface expression score was -0.576.

Regarding A267M, the cAMP reporter score was -0.303 in data set [1] (pH 5.5); -0.618 in data set [1] (pH 6); 0.239 in data set [1] (pH 6, modulator: ogerin); -0.843 in data set [1] (pH 6.5, modulator: ogerin). Moreover, the surface expression score in data set [2] worked out at 0.332.

Turning to A267N, the cAMP reporter score is -1.03 in data set [1] (pH 5.5); -0.837 in data set [1] (pH 6); -1.49 in data set [1] (pH 6, modulator: ogerin); -0.978 in data set [1] (pH 6.5, modulator: ogerin). Further, in data set [2], the surface expression score is -2.85.

As for A267K, the cAMP reporter score was -0.551 in data set [1] (pH 5.5); -0.647 in data set [1] (pH 6); -0.028 in data set [1] (pH 6, modulator: ogerin); 0.439 in data set [1] (pH 6.5, modulator: ogerin). Moreover, the surface expression score in data set [2] was -1.33.

In the case of Y268_H269del, the cAMP reporter score in data set [1] (pH 5.5) is -1.46; in data set [1] (pH 6) it was -0.919; in data set [1] (pH 6, modulator: ogerin) it was -1.75; in data set [1] (pH 6.5, modulator: ogerin), -0.667. Besides, in data set [2], the surface expression score was -2.36.

Turning to P283K, the cAMP reporter score in data set [1] (pH 5.5) is -1.19; in data set [1] (pH 6), -1.08; in data set [1] (pH 6, modulator: ogerin), -0.91; in data set [1] (pH 6.5, modulator: ogerin), -1.92. The surface expression score in data set [2] stood at 0.033.

Turning to P283E, the cAMP reporter score is -1.38 in data set [1] (pH 5.5); -1.45 in data set [1] (pH 6); -0.89 in data set [1] (pH 6, modulator: ogerin); -1.56 in data set [1] (pH 6.5, modulator: ogerin). Moreover, in data set [2], the surface expression score was -1.95.

For the variant P283G, the cAMP reporter score is 0.347 in data set [1] (pH 5.5); 0.283 in data set [1] (pH 6); -0.451 in data set [1] (pH 6, modulator: ogerin); -0.462 in data set [1] (pH 6.5, modulator: ogerin). Moreover, the surface expression score in data set [2] is -1.79.

With P283V, the cAMP reporter score was -1.3 in data set [1] (pH 5.5); -1.21 in data set [1] (pH 6); -1.54 in data set [1] (pH 6, modulator: ogerin); -1.81 in data set [1] (pH 6.5, modulator: ogerin). The surface expression score in data set [2] is -1.35.

With P283M, the cAMP reporter score in data set [1] (pH 5.5) is -2.72; in data set [1] (pH 6) it was -1.22; in data set [1] (pH 6, modulator: ogerin) it was -2.6; in data set [1] (pH 6.5, modulator: ogerin), -1.96. Further, the surface expression score in data set [2] was -1.1.

For P283Q, the cAMP reporter score is -0.415 in data set [1] (pH 5.5); -1.64 in data set [1] (pH 6); -0.758 in data set [1] (pH 6, modulator: ogerin); -1.42 in data set [1] (pH 6.5, modulator: ogerin). Further, the surface expression score in data set [2] is -3.91.

As for P283L, the cAMP reporter score in data set [1] (pH 5.5) is -1.86; in data set [1] (pH 6), -0.711; in data set [1] (pH 6, modulator: ogerin), -1.8; in data set [1] (pH 6.5, modulator: ogerin), -1.07. The surface expression score in data set [2] is -2.27.

For the variant P283F, the cAMP reporter score was -1.67 in data set [1] (pH 5.5); -0.737 in data set [1] (pH 6); -0.699 in data set [1] (pH 6, modulator: ogerin); -0.674 in data set [1] (pH 6.5, modulator: ogerin). Also, the surface expression score in data set [2] is -1.94.

Consider P283Y, for which the cAMP reporter score is -2.1 in data set [1] (pH 5.5); -1.26 in data set [1] (pH 6); -1.8 in data set [1] (pH 6, modulator: ogerin); -1.48 in data set [1] (pH 6.5, modulator: ogerin). In data set [2], the surface expression score is -1.08.

For the variant P283S, the cAMP reporter score in data set [1] (pH 5.5) was -0.663; in data set [1] (pH 6), 0.266; in data set [1] (pH 6, modulator: ogerin) it was -1.14; in data set [1] (pH 6.5, modulator: ogerin) it was -0.872.

For the variant P283N, the cAMP reporter score in data set [1] (pH 5.5) is -0.973; in data set [1] (pH 6), -0.297; in data set [1] (pH 6, modulator: ogerin) it was -1.67; in data set [1] (pH 6.5, modulator: ogerin) it was -0.523. In data set [2], the surface expression score was -1.31.

For P283R, the cAMP reporter score is -1.16 in data set [1] (pH 5.5); -0.782 in data set [1] (pH 6, modulator: ogerin); -1.14 in data set [1] (pH 6.5, modulator: ogerin). Moreover, the surface expression score in data set [2] was -2.32.

Take P283D: the cAMP reporter score in data set [1] (pH 5.5) was -1.34; in data set [1] (pH 6) it was -0.962; in data set [1] (pH 6, modulator: ogerin) it was -0.876; in data set [1] (pH 6.5, modulator: ogerin), -1.51. For the same variant, in data set [2], the surface expression score is -2.03.

For the variant P283W, the cAMP reporter score in data set [1] (pH 5.5) was -0.701; in data set [1] (pH 6), -0.55; in data set [1] (pH 6.5, modulator: ogerin), -0.811. Moreover, the surface expression score in data set [2] is -1.82.

For the variant P283H, the cAMP reporter score is -1.14 in data set [1] (pH 5.5); -0.514 in data set [1] (pH 6); -1.2 in data set [1] (pH 6, modulator: ogerin); -0.88 in data set [1] (pH 6.5, modulator: ogerin). In addition, the surface expression score in data set [2] was -1.51.

In the case of P283T, the cAMP reporter score in data set [1] (pH 5.5) is -1.51; in data set [1] (pH 6) it was -1.36; in data set [1] (pH 6, modulator: ogerin), -1.77; in data set [1] (pH 6.5, modulator: ogerin), -1.57. Moreover, the surface expression score in data set [2] is -1.33.

In the case of P283C, the cAMP reporter score was -2.35 in data set [1] (pH 5.5); -0.987 in data set [1] (pH 6); -1.33 in data set [1] (pH 6, modulator: ogerin); -0.683 in data set [1] (pH 6.5, modulator: ogerin).

On to L272_L273insGSG, for which the cAMP reporter score is -0.789 in data set [1] (pH 5.5); -0.608 in data set [1] (pH 6); -1.11 in data set [1] (pH 6, modulator: ogerin); -0.569 in data set [1] (pH 6.5, modulator: ogerin). Also, the surface expression score in data set [2] was -1.68.

As to P283_V284insG, the cAMP reporter score in data set [1] (pH 5.5) was -1.56; in data set [1] (pH 6) it was -0.948; in data set [1] (pH 6, modulator: ogerin), -1.67; in data set [1] (pH 6.5, modulator: ogerin), -1.3. Also, in data set [2], the surface expression score is -2.27.

L272_L274del: the cAMP reporter score is -1.44 in data set [1] (pH 5.5); -0.549 in data set [1] (pH 6); -1.43 in data set [1] (pH 6, modulator: ogerin); -1.22 in data set [1] (pH 6.5, modulator: ogerin). In data set [2], the surface expression score was -2.22.

The record behind these values is the GPR68 mutational scans of Howard et al. (2025).
